Out of some 360,000 compounds screened, about 7,500 (2.1%) were called active. This list was built around the results that the source calls inconclusive (neither active nor inactive); the mix of calls is not that of the screen. Calls come from the whole dose curve; as a rule, active = well fitted cell-killing curve with a large enough effect; inconclusive = small, poorly fitted or top-dose-only effect, or effect the other way, or another doubt; inactive = no such curve, though single readings can be large or run the other way. Potencies of inconclusive entries are left out as doubtful fits.
Assay: qHTS for induction of synthetic lethality in tumor cells producing 2HG: qHTS for the HT-1080-IDH1KD cell line;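 for activity, negative = toxicity: 0% = DMSO wells and -100% = cell-free medium wells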
Conditions: HT-1080 IDH1 knockdown viability, ATP luminescence, 48 h; activity, negative = toxicity: at 46.1 µM (top of the series) unless noted
Method in brief: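 Knockdown cells (IDH1KD HT-1080) received compounds 2 h after plating at 750 cells/well and were kept 48 h at 37 °C in 5% FBS RPMI. A CellTiter-Glo luminescence read gave % activity for curve fitting.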
Potency is the fitted concentration of half-maximal effect; tags give direction and shape of the fitted curve.

SMILES	Potency	activity, negative = toxicity
CC1(C(=O)NCc2cccc3ccccc23)CCN1Cc1ccc(OC(F)(F)F)cc1 (stereo unspecified)	inconclusive [cytotoxic, single point]	–
COc1cc(CNC(C)(C)CO)cc(Br)c1OCc1ccc(Cl)cc1	inconclusive [cytotoxic, single point]	–
COc1cccc(/C=N/Nc2ccc(S(=O)(=O)Nc3ccccc3C(=O)O)cc2[N+](=O)[O-])c1O	–	inactive: 9.03%
Cc1cc(Cl)ccc1OCCCC(=O)NCCN1C(=O)S/C(=C\c2cccnc2)C1=O	inconclusive [cytotoxic, single point]	–
Cc1c(Cl)cccc1NS(=O)(=O)c1ccc2c(c1)C1C=CCC1C(c1ccc(C(=O)O)cc1)N2 (stereo unspecified)	–	inactive: -15.7%
Cc1c(C#N)c(N=CN(C)C)c(C(=O)c2ccc(Br)cc2)n1-c1ccc(Cl)cc1	inconclusive [cytotoxic, single point]	–
Cc1nn(Cc2ccccc2)c(C)c1NC(=O)Cn1nc([N+](=O)[O-])c(Cl)c1C	inconclusive [cytotoxic, single point]	–
CCN1CCN(Cc2ccc(NC(=O)c3cc(NC(=O)c4cnnc5ccccc45)cc(OC)c3)cc2C(F)(F)F)CC1	inconclusive [cytotoxic, single point]	–
Cc1ccc(S(=O)(=O)NC2CCCCC2)c(C)c1NS(C)(=O)=O	–	inconclusive: -2.89% [cytotoxic]
CC1CCN(C(=O)CCC(=O)Nc2ccc([N+](=O)[O-])cc2)CC1	inconclusive [cytotoxic, partial curve]	–
COc1ccc(-c2coc3c(C(=O)NCc4ccccc4)cccc23)c(C)c1	inconclusive [cytotoxic, partial curve, poor fit]	–
Cc1cc(N2CCN(Cc3cn(C)nc3-c3cccc(Cl)c3)CC2)cc(C)n1	active: 16.4 µM	–
CC1=C(C(=O)N(C)C)CC(CC(=O)NCc2cccs2)C(=O)N1Cc1ccc(F)cc1 (stereo unspecified)	–	inactive: 15.3%
CCOC(=O)c1ccccc1NC(=O)COC(=O)C1CCN(S(=O)(=O)c2ccccc2C(=O)OC)CC1	–	inactive: -0.969%
Fc1ccc(-n2c(-c3ccc4c(c3)OCO4)n[nH]c2=S)cc1Cl	–	inactive: 15.6%
Fc1ccc(CSc2nc3ccccc3[nH]2)c2ccccc12	inconclusive [cytotoxic, single point]	–
COc1ccc(-n2c(-c3ccc(Br)cc3)c[n+]3c2SC(C)C3)cc1 (stereo unspecified)	inconclusive [cytotoxic, partial curve]	–
CC1CC(C)(C)NC(=S)N1CC(=O)N1CCN(Cc2ccccc2)CC1 (stereo unspecified)	–	inactive: 1.07%
CCCN(CC(=O)Nc1ccccc1C)C(=O)c1ccc(-c2ccccc2)cc1	–	inactive: 6.36%
CC(O)(c1ccc(F)c(F)c1)c1nc(-c2ccccc2)cs1 (stereo unspecified)	inconclusive [cytotoxic, single point]	–
O[C@@H](c1cc(C(F)(F)F)nc2c(C(F)(F)F)cccc12)[C@H]1CCCCN1	active: 20.6 µM	–
Cc1cc(OCCCn2ccnc2)cc(C)c1Cl	inconclusive [cytotoxic, single point]	–
N#C/C(=C/c1ccc2c(c1)OCO2)C(=O)NCCc1c[nH]c2ccccc12	inconclusive [cytotoxic, single point]	–

SMILES	Potency	activity, negative = toxicity
CCCCC1C(=O)NN(c2ccccc2)C1=O (stereo unspecified)	active: 4.61 µM	–
Cc1cc(-c2ccc(C(C)C)c(S(=O)(=O)N3CC(=O)Nc4ccccc43)c2)on1	inconclusive [cytotoxic, partial curve]	–
Cc1ccc(NNC(=O)C(O)(c2cccc(C(F)(F)F)c2)c2cccc(C(F)(F)F)c2)cc1	active: 7.31 µM	–
Cc1onc(-c2ccccc2Cl)c1C(=O)Nc1ccccc1O	–	inactive: -0.919%
Cc1nn(C)c(C)c1CN(Cc1nc(-c2cc(F)ccc2F)oc1C)C1CC1	inconclusive [cytotoxic, single point]	–
CCOC(=O)C(Sc1cc(-c2ccccc2)nc2ncnn12)C(C)=O (stereo unspecified)	–	inactive: -26.6%
O=C(COC(=O)CCc1ccc(S(=O)(=O)N2CCOCC2)cc1)NC(=O)NC1CCCCC1	–	inactive: 7.73%
C/C(=N\NC(=O)c1ccncc1)c1cc2ccccc2oc1=O	inconclusive [cytotoxic, single point]	–
Nc1ccccc1Nc1cc(-c2ccccc2)[nH]n1	inconclusive [cytotoxic, partial curve]	–
C/C1=C\CCC2C(/C=C(\C)CC1)OC(=O)C2CN1CCCCC1 (stereo unspecified)	active: 20.6 µM	–
CCOC(=O)/C=C(C)\C=C\c1c[nH]c2ccccc12	inconclusive [cytotoxic, single point]	–
O=C(N/N=C/c1ccc(F)cc1)c1sccc1OCc1ccc(F)cc1	active: 16.4 µM	–
CCc1ccc(OCC(=O)NC(NC(=S)Nc2ccc(Cl)cc2)C(Cl)(Cl)Cl)cc1 (stereo unspecified)	inconclusive [cytotoxic, single point]	–
C(=N\Nc1ccc2nncn2n1)/c1ccccn1	inconclusive [cytotoxic, partial curve]	–
C(=C\c1ccccc1)/CN1CCN(C(c2cccc3ccccc23)c2nnnn2C2CCCC2)CC1 (stereo unspecified)	inconclusive [cytotoxic, partial curve]	–
Cc1ccccc1N=C/C=C1\N(C)c2ccccc2C1(C)C	–	inactive: -4.84%
O=C(CCS(=O)(=O)c1ccccc1)N(CCCN1CCOCC1)c1nc2ccc(F)cc2s1	inconclusive [cytotoxic, single point]	–
CC(=O)n1c(Cl)c(NC(=O)CCl)c2ccccc21	active: 7.08 µM	–
O=C(c1ccc(S(=O)(=O)Cc2cc(F)ccc2F)c([N+](=O)[O-])c1)N1CCCC1	active: 20.6 µM	–
COc1ccc(OC)c(Cc2nnc(CCC(=O)NC3CCCC3)o2)c1	–	inactive: 11.3%
O=[N+]([O-])c1cccc(S(=O)(=O)N2CCC(c3nc(-c4ccncc4)no3)CC2)c1	–	inactive: 14.9%
CC1CCN(C(=O)COC(=O)c2ccc(Br)o2)CC1	–	inactive: 5.37%
CCOC(=O)C1=C(C)NC(C)=C(C(=O)OCC)C1C(=O)OCC(=O)N(C)C1CCS(=O)(=O)C1 (stereo unspecified)	–	inactive: 15.9%

— PubChem BioAssay AID686971 (National Center for Advancing Translational Sciences (NCATS), 2013)
